Experimental data published in PMC9911399, “Two distinct binding modes provide the RNA-binding protein RbFox with extraordinary sequence specificity”.
Changes are numbered by the printed parent chain; changes in the protein carry UniProt numbers. This is one part of the list.

B1: UUCGCCU (DNA:RNA)
RNA: GGGAGACCGGAAUUCAGAUUGUCCUUCGCCUUUAAAUCCCGUCGUAGCCACCA
DNA 1: CAATCTGAATTCCGGTCTCCC
DNA 2: TGGTGGCTACGACGGGATT
B2: GUUAGUU (DNA:RNA)
RNA: B1 RNA with U25G, C27U, G28A, C29G, C30U
DNA 1: CAATCTGAATTCCGGTCTCCC
DNA 2: TGGTGGCTACGACGGGATT
B3: CGUCUAC (DNA:RNA)
RNA: GGGAGACCGGAAUUCAGAUUGUCCCGUCUACUUAAAUCCCGUCGUAGCCACCA
DNA 1: CAATCTGAATTCCGGTCTCCC
DNA 2: TGGTGGCTACGACGGGATT
B4: UUUGCUU (DNA:RNA)
RNA: B1 RNA with C27U, C30U
DNA 1: CAATCTGAATTCCGGTCTCCC
DNA 2: TGGTGGCTACGACGGGATT
B5: GAAAAGC (DNA:RNA)
RNA: B3 RNA with C25G, G26A, U27A, C28A, U29A, A30G
DNA 1: CAATCTGAATTCCGGTCTCCC
DNA 2: TGGTGGCTACGACGGGATT
B6: AACGCCU (DNA:RNA)
RNA: B1 RNA with U25A, U26A
DNA 1: CAATCTGAATTCCGGTCTCCC
DNA 2: TGGTGGCTACGACGGGATT
B7: UAUAUUG (DNA:RNA)
RNA: B3 RNA with C25U, G26A, C28A, A30U, C31G
DNA 1: CAATCTGAATTCCGGTCTCCC
DNA 2: TGGTGGCTACGACGGGATT
B8: GCUGGCU (DNA:RNA)
RNA: B1 RNA with U25G, U26C, C27U, C29G
DNA 1: CAATCTGAATTCCGGTCTCCC
DNA 2: TGGTGGCTACGACGGGATT
B9: UGGUCUU (DNA:RNA)
RNA: B1 RNA with U26G, C27G, G28U, C30U
DNA 1: CAATCTGAATTCCGGTCTCCC
DNA 2: TGGTGGCTACGACGGGATT
B10: AUUCCAC (DNA:RNA)
RNA: B3 RNA with C25A, G26U, U29C
DNA 1: CAATCTGAATTCCGGTCTCCC
DNA 2: TGGTGGCTACGACGGGATT
B11: GCUUAGU (DNA:RNA)
RNA: B3 RNA with C25G, G26C, C28U, U29A, A30G, C31U
DNA 1: CAATCTGAATTCCGGTCTCCC
DNA 2: TGGTGGCTACGACGGGATT
B12: CGCAGAC (DNA:RNA)
RNA: B3 RNA with U27C, C28A, U29G
DNA 1: CAATCTGAATTCCGGTCTCCC
DNA 2: TGGTGGCTACGACGGGATT
B13: CUACGUA (DNA:RNA)
RNA: B3 RNA with G26U, U27A, U29G, A30U, C31A
DNA 1: CAATCTGAATTCCGGTCTCCC
DNA 2: TGGTGGCTACGACGGGATT
B14: CGCAUCU (DNA:RNA)
RNA: B3 RNA with U27C, C28A, A30C, C31U
DNA 1: CAATCTGAATTCCGGTCTCCC
DNA 2: TGGTGGCTACGACGGGATT
B15: GUACGGC (DNA:RNA)
RNA: B3 RNA with C25G, G26U, U27A, U29G, A30G
DNA 1: CAATCTGAATTCCGGTCTCCC
DNA 2: TGGTGGCTACGACGGGATT
B16: AGAGGGA (DNA:RNA)
RNA: B3 RNA with C25A, U27A, C28G, U29G, A30G, C31A
DNA 1: CAATCTGAATTCCGGTCTCCC
DNA 2: TGGTGGCTACGACGGGATT
B17: CUCAAUC (DNA:RNA)
RNA: B3 RNA with G26U, U27C, C28A, U29A, A30U
DNA 1: CAATCTGAATTCCGGTCTCCC
DNA 2: TGGTGGCTACGACGGGATT
B18: CUCUGAG (DNA:RNA)
RNA: B3 RNA with G26U, U27C, C28U, U29G, C31G
DNA 1: CAATCTGAATTCCGGTCTCCC
DNA 2: TGGTGGCTACGACGGGATT
B19: CAUGAUG (DNA:RNA)
RNA: B3 RNA with G26A, C28G, U29A, A30U, C31G
DNA 1: CAATCTGAATTCCGGTCTCCC
DNA 2: TGGTGGCTACGACGGGATT
B20: AAACGGU (DNA:RNA)
RNA: B3 RNA with C25A, G26A, U27A, U29G, A30G, C31U
DNA 1: CAATCTGAATTCCGGTCTCCC
DNA 2: TGGTGGCTACGACGGGATT
B21: GACGGUA (DNA:RNA)
RNA: B1 RNA with U25G, U26A, C29G, C30U, U31A
DNA 1: CAATCTGAATTCCGGTCTCCC
DNA 2: TGGTGGCTACGACGGGATT
B22: CAGCUGG (DNA:RNA)
RNA: B3 RNA with G26A, U27G, A30G, C31G
DNA 1: CAATCTGAATTCCGGTCTCCC
DNA 2: TGGTGGCTACGACGGGATT
B23: UCGUCGU (DNA:RNA)
RNA: B1 RNA with U26C, C27G, G28U, C30G
DNA 1: CAATCTGAATTCCGGTCTCCC
DNA 2: TGGTGGCTACGACGGGATT
B24: CCAAUAC (DNA:RNA)
RNA: B3 RNA with G26C, U27A, C28A
DNA 1: CAATCTGAATTCCGGTCTCCC
DNA 2: TGGTGGCTACGACGGGATT
B25: AGGUGGG (DNA:RNA)
RNA: B3 RNA with C25A, U27G, C28U, U29G, A30G, C31G
DNA 1: CAATCTGAATTCCGGTCTCCC
DNA 2: TGGTGGCTACGACGGGATT
B26: GCUUUAG (DNA:RNA)
RNA: B3 RNA with C25G, G26C, C28U, C31G
DNA 1: CAATCTGAATTCCGGTCTCCC
DNA 2: TGGTGGCTACGACGGGATT
B27: CGCAUUG (DNA:RNA)
RNA: B3 RNA with U27C, C28A, A30U, C31G
DNA 1: CAATCTGAATTCCGGTCTCCC
DNA 2: TGGTGGCTACGACGGGATT
B28: CACAUCA (DNA:RNA)
RNA: B3 RNA with G26A, U27C, C28A, A30C, C31A
DNA 1: CAATCTGAATTCCGGTCTCCC
DNA 2: TGGTGGCTACGACGGGATT
B29: CAGAGUG (DNA:RNA)
RNA: B3 RNA with G26A, U27G, C28A, U29G, A30U, C31G
DNA 1: CAATCTGAATTCCGGTCTCCC
DNA 2: TGGTGGCTACGACGGGATT
B30: GGCUUUG (DNA:RNA)
RNA: B3 RNA with C25G, U27C, C28U, A30U, C31G
DNA 1: CAATCTGAATTCCGGTCTCCC
DNA 2: TGGTGGCTACGACGGGATT
B31: UCGAAAA (DNA:RNA)
RNA: B3 RNA with C25U, G26C, U27G, C28A, U29A, C31A
DNA 1: CAATCTGAATTCCGGTCTCCC
DNA 2: TGGTGGCTACGACGGGATT

Biological target: T1, RBFOX1 RRM RbFoxmut (Fox-RRM*) (Homo sapiens, UniProt Q9NWB1 109-208, R118D;E147R;N151S;E152T)
T1 sequence: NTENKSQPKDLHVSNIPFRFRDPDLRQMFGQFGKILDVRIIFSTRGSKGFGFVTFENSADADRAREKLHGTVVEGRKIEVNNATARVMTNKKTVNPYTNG
Assay: EMSA; HiTS-Eq, 1 nM pool, 10 min; buffer printed only for the single-RNA assays: 10 mM Tris pH 7.5, 150 mM NaCl, 3.4 mM EDTA, 0.001% NP-40, 30 C
Details: tags: His6 N-terminal (pET28a); label: 5' 32P
Outline: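 Purified RbFox RRM (wild type or mutant) was equilibrated for 10 min in 50 µL with 1 nM of a 5′-radiolabelled pool of RNA with 7 randomized nucleotides, its flanks annealed to DNA oligonucleotides, across increasing protein concentrations. Free RNA was separated by 8% native PAGE, excised, reverse-transcribed, PCR-barcoded and sequenced on an Illumina HiSeq 2500. Relative association constants came from read-count changes of each variant against the control reaction, normalised to the cognate motif.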

Row | Binder | binding signal
1 | B1 | 0.0794 KA relative to UGCAUGU
2 | B2 | 0.117 KA relative to UGCAUGU
3 | B3 | 0.114 KA relative to UGCAUGU
4 | B4 | 0.0734 KA relative to UGCAUGU
5 | B5 | 0.0796 KA relative to UGCAUGU
6 | B6 | 0.0706 KA relative to UGCAUGU
7 | B7 | 0.132 KA relative to UGCAUGU
8 | B8 | 0.116 KA relative to UGCAUGU
9 | B9 | 0.0776 KA relative to UGCAUGU
10 | B10 | 0.0586 KA relative to UGCAUGU
11 | B11 | 0.143 KA relative to UGCAUGU
12 | B12 | 0.104 KA relative to UGCAUGU
13 | B13 | 0.124 KA relative to UGCAUGU
14 | B14 | 0.395 KA relative to UGCAUGU
15 | B15 | 0.102 KA relative to UGCAUGU
16 | B16 | 0.0855 KA relative to UGCAUGU

Row | Binder | binding signal
17 | B17 | 0.059 KA relative to UGCAUGU
18 | B18 | 0.0972 KA relative to UGCAUGU
19 | B19 | 0.114 KA relative to UGCAUGU
20 | B20 | 0.0743 KA relative to UGCAUGU
21 | B21 | 0.129 KA relative to UGCAUGU
22 | B22 | 0.105 KA relative to UGCAUGU
23 | B23 | 0.109 KA relative to UGCAUGU
24 | B24 | 0.0931 KA relative to UGCAUGU
25 | B25 | 0.105 KA relative to UGCAUGU
26 | B26 | 0.123 KA relative to UGCAUGU
27 | B27 | 0.179 KA relative to UGCAUGU
28 | B28 | 0.117 KA relative to UGCAUGU
29 | B29 | 0.156 KA relative to UGCAUGU
30 | B30 | 0.204 KA relative to UGCAUGU
31 | B31 | 0.091 KA relative to UGCAUGU
